From article PMC11995724, “Antibiotic target discovery by integrated phenotypic and activity-based profiling of electrophilic fragments” (Cell chemical biology, 2025)
Out of some 3,200 compounds screened, about 75 (2%) showed an effect of 50% or more. Some of the results follow.

tested on: T1, S. aureus MSSA476; parameters: species or system S. aureus MSSA476 (TSB) or V. cholerae SAD30 (LB); 384-well bacterial growth screen at 25 uM, OD600 relative to DMSO control; settings: relative growth, OD600, TSB; 25 µM; inhibitor
T1 construct: MSSA476

Compared with `O=C(CCl)NC(Cc1ccccc1)c1ccccc1F` (stereo not shown) [7-N10, 2-chloro-N-[1-(2-fluorophenyl)-2-phenylethyl]acetamide], `O=C(CCl)Nc1cc(-c2ccccc2)nn1-c1ccccc1` [4-A20, 2-chloro-N-(1,3-diphenyl-1H-pyrazol-5-yl)acetamide] is higher in “% of control remaining” value: 83.5165% for the first, 131.11% for the second.

First: CC(Cl)C(=O)NC1CCc2cnn(C(C)C)c2C1 (stereo not shown) [7-H05, 2-chloro-N-[1-(propan-2-yl)-4,5,6,7-tetrahydro-1H-indazol-6-yl]propanamide]
Second: C=CC(=O)N(Cc1cccs1)C1CCc2cnn(C(C)C)c2C1 (stereo not shown) [1-L15, N-[1-(propan-2-yl)-4,5,6,7-tetrahydro-1H-indazol-6-yl]-N-[(thiophen-2-yl)methyl]prop-2-enamide]
The “% of control remaining” value of the first is lower: 95.1334% for the first, 140.659% for the second.

Compared with `N#CC(=Cc1cccc(Cl)c1Cl)C(=O)NCCc1ccccc1` [8-J06, 2-cyano-3-(2,3-dichlorophenyl)-N-(2-phenylethyl)prop-2-enamide], `COc1ccccc1NC(=O)C(C#N)=Cc1ccccc1F` [8-E11, 2-cyano-3-(2-fluorophenyl)-N-(2-methoxyphenyl)prop-2-enamide] is higher in “% of control remaining” value: 0.6639% for the first, 129.793% for the second.

Compared with `CCOc1cc(C=C(C#N)C(=O)NC(C)C)cc(Cl)c1O` [9-I13, 3-(3-chloro-5-ethoxy-4-hydroxyphenyl)-2-cyano-N-(propan-2-yl)prop-2-enamide], `CC(C)NC(=O)C(C#N)=Cc1ccc2c(c1)OCCO2` [9-E11, 2-cyano-3-(2,3-dihydro-1,4-benzodioxin-6-yl)-N-(propan-2-yl)prop-2-enamide] is higher in “% of control remaining” value: 91.985% for the first, 106.367% for the second.

Going from `Cc1cccc(C)c1NC(=O)C(C#N)=Cc1c(C)n[nH]c1C` [8-O20, 2-cyano-3-(3,5-dimethyl-1H-pyrazol-4-yl)-N-(2,6-dimethylphenyl)prop-2-enamide] to `N#CC(=Cc1ccc(Cl)cc1Cl)C(=O)Nc1nccs1` [9-H19, 2-cyano-3-(2,4-dichlorophenyl)-N-(1,3-thiazol-2-yl)prop-2-enamide], the “% of control remaining” value rises from 101.909% to 102.172%.

First: Cc1cc(CN(C(=O)CCl)c2csnc2C)cs1 [5-C12, 2-chloro-N-(3-methyl-1,2-thiazol-4-yl)-N-[(5-methylthiophen-3-yl)methyl]acetamide]
Second: COc1ccc2[nH]c(C)c(C(=O)CCl)c2c1 [10-L05, 2-chloro-1-(5-methoxy-2-methyl-1H-indol-3-yl)ethan-1-one]
The “% of control remaining” value of the first is higher: 105.282% for the first, 73.4375% for the second.

Compared with `Cc1nn(C)c(N2CCCN(C)CC2)c1CNC(=O)C(C)Cl` (stereo not shown) [6-N17, 2-chloro-N-{[1,3-dimethyl-5-(4-methyl-1,4-diazepan-1-yl)-1H-pyrazol-4-yl]methyl}propanamide], `CC(Cl)C(=O)NCCc1csc(N2CCCC2)n1` (stereo not shown) [7-O08, 2-chloro-N-{2-[2-(pyrrolidin-1-yl)-1,3-thiazol-4-yl]ethyl}propanamide] is lower in “% of control remaining” value: 115.756% for the first, 87.2841% for the second.

First: CC(Cl)C(=O)N1CCCCCC1 (stereo not shown) [5-F11, 1-(azepan-1-yl)-2-chloropropan-1-one]
Second: CC(Cl)C(=O)N1CCCCC1c1cnn(C)c1 (stereo not shown) [7-A03, 2-chloro-1-[2-(1-methyl-1H-pyrazol-4-yl)piperidin-1-yl]propan-1-one]
The “% of control remaining” value of the first is higher: 102.004% for the first, 97.0173% for the second.

Going from `C=CC(=O)N(CC)CC(=O)Nc1ccc2c(c1)nc1n2CCCCC1` [3-M19, N-[({1,8-diazatricyclo[7.5.0.0,2,7]tetradeca-2,4,6,8-tetraen-5-yl}carbamoyl)methyl]-N-ethylprop-2-enamide] to `C=CC(=O)Nc1ccc(C(=O)N2CCCCC2c2n[nH]c(C)n2)cc1` (stereo not shown) [3-E13, N-{4-[2-(5-methyl-1H-1,2,4-triazol-3-yl)piperidine-1-carbonyl]phenyl}prop-2-enamide], the “% of control remaining” value rises from 115.977% to 122.943%.

Going from `C=CC(=O)Nc1ccc2oc(CC(C)(C)C)nc2c1` [3-K18, N-[2-(2,2-dimethylpropyl)-1,3-benzoxazol-5-yl]prop-2-enamide] to `C=CC(=O)Nc1nc2cc(C(F)(F)F)ccc2n1Cc1ccco1` [1-G11, N-{1-[(furan-2-yl)methyl]-5-(trifluoromethyl)-1H-1,3-benzodiazol-2-yl}prop-2-enamide], the “% of control remaining” value falls from 106.922% to 86.5055%.

Going from `CC(Cl)C(=O)Nc1ccc(OC(F)F)c(Cl)c1` (stereo not shown) [4-F18, 2-chloro-N-[3-chloro-4-(difluoromethoxy)phenyl]propanamide] to `CC(Cl)C(=O)c1ccc2c(c1)NC(=O)CO2` (stereo not shown) [10-P12, 6-(2-chloropropanoyl)-3,4-dihydro-2H-1,4-benzoxazin-3-one], the “% of control remaining” value rises from 97.9514% to 104.375%.

Compared with `C=CC(=O)N1CCCC(c2nc(C)no2)C1` (stereo not shown) [2-K12, 1-[3-(3-methyl-1,2,4-oxadiazol-5-yl)piperidin-1-yl]prop-2-en-1-one], `C=CC(=O)N1CCC(NC(C)=O)(c2noc(C)n2)C1` (stereo not shown) [2-G16, N-[3-(5-methyl-1,2,4-oxadiazol-3-yl)-1-(prop-2-enoyl)pyrrolidin-3-yl]acetamide] is lower in “% of control remaining” value: 97.4761% for the first, 93.2985% for the second.

Compared with `C=CC(=O)N(Cc1cc(C)cc2c(C)c(C)[nH]c12)CC1(C)COC1` [2-E07, N-[(3-methyloxetan-3-yl)methyl]-N-[(2,3,5-trimethyl-1H-indol-7-yl)methyl]prop-2-enamide], `Cc1cc(C(=O)CCl)c(C)n1Cc1ccccc1Cl` [10-P16, 2-chloro-1-{1-[(2-chlorophenyl)methyl]-2,5-dimethyl-1H-pyrrol-3-yl}ethan-1-one] is higher in “% of control remaining” value: 117.319% for the first, 127.813% for the second.

Compared with `C=CC(=O)NC1CCC(n2c(C)ccc2C)CC1` (stereo not shown) [2-E19, N-[4-(2,5-dimethyl-1H-pyrrol-1-yl)cyclohexyl]prop-2-enamide], `C=CC(=O)NC(c1ccc(F)cc1)C1CC1` (stereo not shown) [3-H20, N-[cyclopropyl(4-fluorophenyl)methyl]prop-2-enamide] is lower in “% of control remaining” value: 111.053% for the first, 100.305% for the second.

Compared with `Cn1cc(C=C(C#N)C(=O)NC2CCCC2)c(-c2ccncc2)n1` [9-L16, 2-cyano-N-cyclopentyl-3-[1-methyl-3-(pyridin-4-yl)-1H-pyrazol-4-yl]prop-2-enamide], `C=CC(=O)NCc1ccc(C(=O)N2CCC(C#N)CC2)cc1` [3-P05, N-{[4-(4-cyanopiperidine-1-carbonyl)phenyl]methyl}prop-2-enamide] is lower in “% of control remaining” value: 90.4869% for the first, 86.7218% for the second.

Compared with `COc1ccc(-n2c(C)cc(C(=O)CCl)c2C)cc1` [10-I12, 2-chloro-1-[1-(4-methoxyphenyl)-2,5-dimethyl-1H-pyrrol-3-yl]ethan-1-one], `CCOc1ccc(-n2c(C)cc(C(=O)CCl)c2C)cc1` [10-K08, 2-chloro-1-[1-(4-ethoxyphenyl)-2,5-dimethyl-1H-pyrrol-3-yl]ethan-1-one] is lower in “% of control remaining” value: 127.813% for the first, 38.75% for the second.

Going from `C=CC(=O)Nc1c(C)ccn2ncnc12` [2-M08, N-{7-methyl-[1,2,4]triazolo[1,5-a]pyridin-8-yl}prop-2-enamide] to `C=CC(=O)Nc1c(C)cccc1SCC(=O)N(C)C` [1-E13, N-(2-{[(dimethylcarbamoyl)methyl]sulfanyl}-6-methylphenyl)prop-2-enamide], the “% of control remaining” value falls from 82.8547% to 79.8242%.

First: C=CC(=O)N(Cc1ccc(-n2cncn2)cc1)C1CC1 [3-J11, N-cyclopropyl-N-{[4-(1H-1,2,4-triazol-1-yl)phenyl]methyl}prop-2-enamide]
Second: CN(C)c1ccc(C=C(C#N)C(N)=O)cc1 [9-O04, 2-cyano-3-[4-(dimethylamino)phenyl]prop-2-enamide]
The “% of control remaining” value of the first is lower: 116.326% for the first, 127.64% for the second.

Going from `O=C(CCl)Nc1nnc(-c2ccccc2Cl)s1` [6-K17, 2-chloro-N-[5-(2-chlorophenyl)-1,3,4-thiadiazol-2-yl]acetamide] to `CN(CC(=O)Nc1ccc(F)cc1)C(=O)CCl` [4-B05, 2-chloro-N-{[(4-fluorophenyl)carbamoyl]methyl}-N-methylacetamide], the “% of control remaining” value rises from 97.3171% to 104.05%.

First: C=CC(=O)N1CCOC2(CCS(=O)(=O)C2)C1 (stereo not shown) [2-C06, 9-(prop-2-enoyl)-6-oxa-2lambda6-thia-9-azaspiro[4.5]decane-2,2-dione]
Second: C=CC(=O)N1CCC(C(=O)N[C@]2(C(=O)OC)CC[C@@H](C)CC2)CC1 [3-E17, methyl (1r,4r)-4-methyl-1-[1-(prop-2-enoyl)piperidine-4-amido]cyclohexane-1-carboxylate]
The “% of control remaining” value of the first is lower: 106.876% for the first, 118.415% for the second.

Compared with `COc1ccccc1CN1C(=O)C=CC1=O` [10-P21, 1-[(2-methoxyphenyl)methyl]-2,5-dihydro-1H-pyrrole-2,5-dione], `COc1cc2c(cc1OC)C(c1ccccc1)N(C(=O)CCl)CC2` (stereo not shown) [6-K12, 2-chloro-1-(6,7-dimethoxy-1-phenyl-1,2,3,4-tetrahydroisoquinolin-2-yl)ethan-1-one] is higher in “% of control remaining” value: 75.9375% for the first, 102.439% for the second.

`Cc1nc2cc(=O)[nH]n2c(C)c1CNC(=O)C(C)Cl` (stereo not shown) [7-B07, 2-chloro-N-({5,7-dimethyl-2-oxo-1H,2H-pyrazolo[1,5-a]pyrimidin-6-yl}methyl)propanamide] was tested, and the “% of control remaining” value was 113.344%.
